Reference: PMC9911399, “Two distinct binding modes provide the RNA-binding protein RbFox with extraordinary sequence specificity”
Changes are numbered by the printed parent chain; changes in the protein carry UniProt numbers. The list shows a part of the results.

T1: RBFOX1 RRM (Homo sapiens, UniProt Q9NWB1 109-208)
T1 sequence: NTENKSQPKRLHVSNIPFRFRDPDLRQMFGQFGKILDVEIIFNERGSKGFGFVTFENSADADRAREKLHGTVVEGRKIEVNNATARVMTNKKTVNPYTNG

B1: CCUAGGG (DNA:RNA)
RNA: GGGAGACCGGAAUUCAGAUUGUCCCCUAGGGUUAAAUCCCGUCGUAGCCACCA
DNA 1: CAATCTGAATTCCGGTCTCCC
DNA 2: TGGTGGCTACGACGGGATT
B2: GCCAUAA (DNA:RNA)
RNA: B1 RNA with C25G, U27C, G29U, G30A, G31A
DNA 1: CAATCTGAATTCCGGTCTCCC
DNA 2: TGGTGGCTACGACGGGATT
B3: UAAUCUC (DNA:RNA)
RNA: GGGAGACCGGAAUUCAGAUUGUCCUAAUCUCUUAAAUCCCGUCGUAGCCACCA
DNA 1: CAATCTGAATTCCGGTCTCCC
DNA 2: TGGTGGCTACGACGGGATT
B4: GGAAAAC (DNA:RNA)
RNA: B3 RNA with U25G, A26G, U28A, C29A, U30A
DNA 1: CAATCTGAATTCCGGTCTCCC
DNA 2: TGGTGGCTACGACGGGATT
B5: UUGUAGG (DNA:RNA)
RNA: B1 RNA with C25U, C26U, U27G, A28U, G29A
DNA 1: CAATCTGAATTCCGGTCTCCC
DNA 2: TGGTGGCTACGACGGGATT
B6: UAUAUCG (DNA:RNA)
RNA: B1 RNA with C25U, C26A, G29U, G30C
DNA 1: CAATCTGAATTCCGGTCTCCC
DNA 2: TGGTGGCTACGACGGGATT
B7: ACUGUCC (DNA:RNA)
RNA: B1 RNA with C25A, A28G, G29U, G30C, G31C
DNA 1: CAATCTGAATTCCGGTCTCCC
DNA 2: TGGTGGCTACGACGGGATT
B8: UUUGUUC (DNA:RNA)
RNA: B3 RNA with A26U, A27U, U28G, C29U
DNA 1: CAATCTGAATTCCGGTCTCCC
DNA 2: TGGTGGCTACGACGGGATT
B9: GAAUUAC (DNA:RNA)
RNA: B3 RNA with U25G, C29U, U30A
DNA 1: CAATCTGAATTCCGGTCTCCC
DNA 2: TGGTGGCTACGACGGGATT
B10: ACUAUAG (DNA:RNA)
RNA: B1 RNA with C25A, G29U, G30A
DNA 1: CAATCTGAATTCCGGTCTCCC
DNA 2: TGGTGGCTACGACGGGATT
B11: UUGGGUC (DNA:RNA)
RNA: B3 RNA with A26U, A27G, U28G, C29G
DNA 1: CAATCTGAATTCCGGTCTCCC
DNA 2: TGGTGGCTACGACGGGATT
B12: CUCAGCU (DNA:RNA)
RNA: B1 RNA with C26U, U27C, G30C, G31U
DNA 1: CAATCTGAATTCCGGTCTCCC
DNA 2: TGGTGGCTACGACGGGATT
B13: UAGACGA (DNA:RNA)
RNA: B3 RNA with A27G, U28A, U30G, C31A
DNA 1: CAATCTGAATTCCGGTCTCCC
DNA 2: TGGTGGCTACGACGGGATT
B14: AGGCAUG (DNA:RNA)
RNA: B1 RNA with C25A, C26G, U27G, A28C, G29A, G30U
DNA 1: CAATCTGAATTCCGGTCTCCC
DNA 2: TGGTGGCTACGACGGGATT
B15: UAACCGC (DNA:RNA)
RNA: B3 RNA with U28C, U30G
DNA 1: CAATCTGAATTCCGGTCTCCC
DNA 2: TGGTGGCTACGACGGGATT
B16: CCUAGAC (DNA:RNA)
RNA: B1 RNA with G30A, G31C
DNA 1: CAATCTGAATTCCGGTCTCCC
DNA 2: TGGTGGCTACGACGGGATT
B17: CCGACUA (DNA:RNA)
RNA: B1 RNA with U27G, G29C, G30U, G31A
DNA 1: CAATCTGAATTCCGGTCTCCC
DNA 2: TGGTGGCTACGACGGGATT
B18: UAACUUA (DNA:RNA)
RNA: B3 RNA with U28C, C29U, C31A
DNA 1: CAATCTGAATTCCGGTCTCCC
DNA 2: TGGTGGCTACGACGGGATT
B19: UAUACAA (DNA:RNA)
RNA: B3 RNA with A27U, U28A, U30A, C31A
DNA 1: CAATCTGAATTCCGGTCTCCC
DNA 2: TGGTGGCTACGACGGGATT
B20: AUCAGUU (DNA:RNA)
RNA: B1 RNA with C25A, C26U, U27C, G30U, G31U
DNA 1: CAATCTGAATTCCGGTCTCCC
DNA 2: TGGTGGCTACGACGGGATT

These binders were tested against T1, RBFOX1 RRM (assay: EMSA; HiTS-Eq, 1 nM pool, 10 min; buffer printed only for the single-RNA assays: 10 mM Tris pH 7.5, 150 mM NaCl, 3.4 mM EDTA, 0.001% NP-40, 30 C). Conditions: tags: His6 N-terminal (pET28a); label: 5' 32P.
How it was run: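 Relative association constants, normalised to the cognate motif, were derived by comparing read counts of each RNA species with those of the control reaction. The RNA sequenced was the free fraction, separated by 8% native PAGE after a 10 min equilibration in 50 µL of 1 nM 5′-radiolabelled RNA (7 randomized nucleotides) with increasing concentrations of purified wild-type or mutant RbFox RRM.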
In the case of B1, the binding signal is reported as 0.000444 KA relative to UGCAUGU. In the case of B2, the binding signal is reported as 0.00219 KA relative to UGCAUGU. In the case of B3, the binding signal is reported as 0.00476 KA relative to UGCAUGU. With B4 the binding signal was 0.00279 KA relative to UGCAUGU. For B5, the binding signal was 0.00955 KA relative to UGCAUGU. With B6 the binding signal was 0.0117 KA relative to UGCAUGU. For B7, the binding signal was 0.00488 KA relative to UGCAUGU. For B8, the binding signal was 0.0226 KA relative to UGCAUGU. In the case of B9, the binding signal is reported as 0.00361 KA relative to UGCAUGU. With B10 the binding signal was 0.00317 KA relative to UGCAUGU. B11 was tested, and the binding signal was 0.0314 KA relative to UGCAUGU. B12 was tested, and the binding signal was 0.00638 KA relative to UGCAUGU. With B13 the binding signal was 0.00635 KA relative to UGCAUGU. With B14 the binding signal was 0.662 KA relative to UGCAUGU. In the case of B15, the binding signal is reported as 0.0039 KA relative to UGCAUGU. For B16, the binding signal was 0.00636 KA relative to UGCAUGU. For B17, the binding signal was 0.00505 KA relative to UGCAUGU. For B18, the binding signal was 0.0049 KA relative to UGCAUGU. For B19, the binding signal was 0.00283 KA relative to UGCAUGU. For B20, the binding signal was 0.0026 KA relative to UGCAUGU.
